Measured values published in paper PMC4336329 (PLoS ONE, 2015).
The campaign covered roughly 310,000 compounds. About 14,000 (4.5%) showed an effect of 50% or more. The effect is printed as a negative number. The list shows a part of the results.

Biological target: human ether-à-go-go-related gene (hERG) potassium channel (human, UniProt Q12809)
Assay: primary screen, population patch clamp on CHO cells stably expressing hERG
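Also: peak tail current of the secondary pulse compared with the same well before compound.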

Sequence of human ether-à-go-go-related gene (hERG) potassium channel (Q12809 whole entry, looked up): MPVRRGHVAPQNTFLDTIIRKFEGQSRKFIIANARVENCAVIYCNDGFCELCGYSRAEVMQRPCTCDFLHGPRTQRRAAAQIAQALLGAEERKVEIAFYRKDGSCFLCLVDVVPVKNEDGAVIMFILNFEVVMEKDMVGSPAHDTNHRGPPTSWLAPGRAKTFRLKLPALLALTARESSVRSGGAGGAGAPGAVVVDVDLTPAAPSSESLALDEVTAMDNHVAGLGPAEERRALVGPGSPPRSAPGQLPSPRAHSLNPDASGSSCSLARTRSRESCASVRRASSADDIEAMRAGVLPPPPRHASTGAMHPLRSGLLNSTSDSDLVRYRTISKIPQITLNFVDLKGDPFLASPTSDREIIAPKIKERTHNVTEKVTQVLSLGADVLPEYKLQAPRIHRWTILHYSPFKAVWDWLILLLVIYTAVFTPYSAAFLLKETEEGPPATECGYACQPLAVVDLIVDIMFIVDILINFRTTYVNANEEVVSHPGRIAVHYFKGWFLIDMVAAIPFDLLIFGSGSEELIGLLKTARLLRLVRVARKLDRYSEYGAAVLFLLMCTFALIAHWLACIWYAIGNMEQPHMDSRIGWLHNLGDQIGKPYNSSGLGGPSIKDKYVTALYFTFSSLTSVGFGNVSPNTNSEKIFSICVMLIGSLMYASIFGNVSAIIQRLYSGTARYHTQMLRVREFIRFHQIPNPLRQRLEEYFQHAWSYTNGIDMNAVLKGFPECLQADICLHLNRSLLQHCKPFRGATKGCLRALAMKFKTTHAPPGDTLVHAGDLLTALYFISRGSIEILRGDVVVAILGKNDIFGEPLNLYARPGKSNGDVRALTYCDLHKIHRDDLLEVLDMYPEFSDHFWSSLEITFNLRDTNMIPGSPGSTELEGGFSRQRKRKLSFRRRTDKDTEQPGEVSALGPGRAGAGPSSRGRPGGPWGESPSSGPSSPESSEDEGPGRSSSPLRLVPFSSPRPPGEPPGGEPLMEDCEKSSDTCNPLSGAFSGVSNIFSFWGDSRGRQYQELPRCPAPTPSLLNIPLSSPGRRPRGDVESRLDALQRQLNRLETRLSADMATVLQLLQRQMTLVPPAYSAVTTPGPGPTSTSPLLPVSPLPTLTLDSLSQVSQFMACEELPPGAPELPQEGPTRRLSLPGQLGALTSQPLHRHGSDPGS

Row | Structure (SMILES) | hERG current change (%, negative = inhibition) at 10uM [%]
1 | COC(=O)Cn1c2ccc(F)cc2c2nc(C)sc21 | 7.03
2 | Cn1cnnc1SCC(=O)Nc1sccc1C#N | 5.43
3 | CCC1CCC/C1=N\NC(=O)CCC(=O)Nc1ccccc1Cl (stereo not shown) | 7.77
4 | C=CCNC(=O)/C(=C\C=C\c1ccccc1)NC(=O)c1ccc(OCCCC)cc1 | 3.8
5 | CCCCN=C1NN=C(c2ccc3c(c2)OCCO3)CS1 | -15.5
6 | CCOc1ccc(NC(=O)CSc2nnc(C)n2CCCOC)cc1 | 9.67
7 | CCOC(=O)C(O)(c1ccc(N(C)C(=O)COc2ccccc2)cc1)C(F)(F)F (stereo not shown) | -11
8 | CN(C)CCCN=Cc1c(O)n(Cc2ccco2)c(=O)[nH]c1=O | 16.5
9 | COCCOC(=O)c1c(C)n(C)c2ccc(OC(=O)c3ccco3)cc12 | -2.37
10 | Cc1cc(C(=O)Nc2ccc3c(c2)OCCO3)nn1C(C)(C)C | -1.89
11 | COc1cccc(-c2nnc(N)o2)c1 | 3.45
12 | Cc1cc(C)cc(C(=O)n2cnnc2N)c1 | -2.51
13 | Nc1nc2n(n1)C(c1c(F)cccc1Cl)CC(c1ccc(F)cc1)N2 (stereo not shown) | -62.4
14 | CCOCCCNC(=O)c1ccc2c(c1)OCO2 | -0.807
15 | CCOC(=O)C1(Cc2ccccc2)CCCN(CCCn2cccn2)C1 (stereo not shown) | -14.2
16 | O=C(CN(C(=O)c1csnn1)c1ccc(F)cc1)NCCc1ccccc1 | 7.95
17 | COc1ccc(NC(=O)c2ccc(COc3ccccc3)o2)c(OC)c1 | -7.06
18 | CCS(=O)(=O)N1CCC(C(=O)NCc2ccc(F)cc2)CC1 | 5.49
19 | COc1ccc(C(CC(=O)N2CCCC2)c2c(O)cc(OC)cc2OC)cc1 (stereo not shown) | 5.9
20 | O=C(NC1CCCCCCC1)c1ccc2c(c1)N(Cc1ccc(F)cc1)C(=O)CS2=O (stereo not shown) | -21.5
21 | Cc1ccc(S(=O)(=O)NNC(=S)NCC2CCCO2)cc1 (stereo not shown) | 10.5

Row | Structure (SMILES) | hERG current change (%, negative = inhibition) at 10uM [%]
22 | COc1ccc(-c2nnn(CC(=O)N(C3CCCCC3)C(C)C(=O)NC3CCCC3)n2)cc1OC (stereo not shown) | -22.1
23 | O=C(Nc1nonc1NC(=O)C1CCCCC1)C1CCCCC1 | 14
24 | C=CCn1c(-c2ccccc2)n[nH]c1=S | 14.3
25 | Cc1ccnc(NC(=O)CCC(=O)N(CC(=O)NC(C)(C)C)C2CCCC2)c1 | 1
26 | CSC1=NC2(CCCCC2)CC12C=CC(=O)C=C2 | -11.6
27 | COc1ccc(CNc2nc(=S)[nH]c3cc(OC)c(OC)cc23)cc1 | 3.1
28 | Cc1ccc(N2CC(O)Cn3c2nc2c3c(=O)[nH]c(=O)n2C)cc1 (stereo not shown) | 13.3
29 | CC(C)c1nc(N2CCN(C(=O)c3ccccc3)CC2)c(C#N)c2c1COC(C)(C)C2 | -40.8
30 | CCCCN(C(=O)c1ccc(S(=O)(=O)N(C)C)cc1)c1ccccc1 | -10.9
31 | CC(C)n1c(SCC(=O)Nc2ccccc2)nc2c1c(=O)n(C)c(=O)n2C | -20.4
32 | COC(=O)CN1CCN(C(c2ccccc2)c2ccccc2)CC1 | 5
33 | COc1ccccc1NC(=S)N1CC(C)(C)C1=O | 9.92
34 | CCCN(CCO)CCCc1ccccc1 | -6.8
35 | COc1ccc(Cc2nnc(NC(=O)c3ccco3)s2)cc1 | -11.4
36 | Cc1ccc2[nH]c3c(=O)n(Cc4ccco4)cnc3c2c1 | 14.1
37 | C/C(=N\NC(=O)c1cc(-c2ccc(Cl)s2)[nH]n1)c1ccncc1 | -7.89
38 | CCCNC(=O)C1(CC2CC(c3ccccc3)=NO2)CCNCC1 (stereo not shown) | 23.5
39 | C/C(=N\NC(=O)c1nn(C)cc1Cl)c1ccncc1 | 4.89
40 | O=C(Nc1ccc(Cl)cc1)Nc1cccnc1 | -50.7
41 | CCC(=O)Nc1cc2c(cc1C(=O)CC)OCCO2 | -5.79
42 | CC12CN3CC(C)(CN(C1)C3c1ccc([N+](=O)[O-])o1)C2 (stereo not shown) | 10.8

Row | Structure (SMILES) | hERG current change (%, negative = inhibition) at 10uM [%]
43 | C=CCOc1cccc(C(=O)N2CCCC(Nc3ccc(F)cc3)C2)c1 (stereo not shown) | -40
44 | Cc1nc2c(Br)cc(Br)cc2cc1O | 15.8
45 | Cc1ccc2nc(N3CCN(S(=O)(=O)c4ccc(C)c(Cl)c4)CC3)c(C#N)cc2c1 | 8.45
46 | Cc1nn(-c2ccc(F)cc2)c(N)c1C1(O)C(=O)Nc2ccccc21 (stereo not shown) | 16.4
47 | Oc1ccc(/C=N/NC(=S)N/N=C/c2ccc(O)cc2)cc1 | 19.4
48 | O=C(Nc1ccc(OCc2ccccc2Cl)cc1)c1cccnc1 | 1.02
49 | Cc1cc(C(=O)N/N=C/c2ccc(-c3ccc([N+](=O)[O-])cc3C)o2)n[nH]1 | 5.62
50 | Cc1ccc(OCC(=O)Nc2ccccc2C(N)=O)cc1 | 11.1
51 | Cc1ccc(S(=O)(=O)N(C)C)cc1NC(=O)COC(=O)C1CC(=O)N(c2ccc3c(c2)OCCO3)C1 (stereo not shown) | -4.43
52 | CCOCC(=O)Nc1c(C(=O)N2CCN(c3ncccn3)CC2)oc2ccccc12 | -21.4
53 | CCN(CC(=O)NCc1cccs1)C(=O)C(c1ccccc1)c1ccccc1 | -33.7
54 | CCOC(=O)c1ccccc1NC(=S)N1CCN(C2CCCCC2)CC1 | -62.3
55 | Cc1ccc(S(=O)(=O)c2cc3c(=O)n4ccccc4nc3n(CCc3ccccc3)c2=N)cc1 | 5.39
56 | Cc1ccc2c(c1)c1c(n2CC(O)CN2CCCCC2C)CCCC1 (stereo not shown) | -42.6
57 | CC(C)C(=O)n1nc(-c2cccnc2)nc1NCc1cccs1 | -5.24
58 | COc1ccc(-c2nc(N)n(C(=O)c3cccs3)n2)cc1 | 21.4
59 | C/C(=C/c1ccccc1)C(=O)N1CCN(c2ccccc2)CC1 | -16.2
60 | Cl.c1csc(-c2cnc3n2CCCC3)c1 | 8.38
61 | CCCCOc1ccc(NC(=O)CCSc2nccn2C)cc1 | 21.7
